# Measured values taken from the supplement of paper PMC12645437, “Orthogonal IMiD-Degron Pairs Induce Selective Protein Degradation in Cells” (ACS Chemical Biology, 2025).
# This is one part of the list.
# Target: no compound (DMSO)
# Assay: log2 fold change of degron read counts, EGFP-low vs EGFP+ sorted cells; higher = lower degron-EGFP level without compound (poor expression or instability)
# Conditions: compound: DMSO control; 18 h
# 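Further: jurkat cells carrying a lentiviral library of mutant zinc finger degrons fused to EGFP plus mCherry, mCherry+ cells FACS sorted, degron abundance counted by next-generation sequencing.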
row,Sequence,log2 fold change of degron read counts
1,FHCPICGRTFTQKGNLLRHIKL,-1.48
2,LHCEICGFTCTQKGNLLRHIKL,-0.35
3,FNCPQCGAEFTQKGNLLRHIKL,-1.05
4,FDCPICGACFTQKGNLLRHIKL,-0.468
5,FMCNQCGAEFTQKGNLLRHIKL,-0.594
6,FNCNQCGRLFTQKGNLLRHIKL,0.462
7,FTCNQCGRKFTQKGNLLRHIKL,-0.957
8,FHCNQCGHCFTQKGNLLRHIKL,-0.374
9,LECNQCGFQCTQKGNLLRHIKL,-0.783
10,FSCPICGHHFTQKGNLLRHIKL,-0.114
11,FNCEICGRTFTQKGNLLRHIKL,-1.31
12,FMCNQCGREFTQKGNLLRHIKL,-1.73
13,FFCPQCGARFTQKGNLLRHIKL,0.0137
14,FNCDQCGAMFTQKGNLLRHIKL,-1.72
15,LCCEICGFTCTQKGNLLRHIKL,-0.0111
16,LDCEICGFPCTQKGNLLRHIKL,-0.127

row,Sequence,log2 fold change of degron read counts
1,FGCPICGRQFTQKGNLLRHIKL,-0.253
2,FECPICGAHFTQKGNLLRHIKL,-0.778
3,FECEQCGAYFTQKGNLLRHIKL,-0.605
4,FLCEICGAFFTQKGNLLRHIKL,-0.794
5,FNCPICGAVFTQKGNLLRHIKL,0.264
6,FVCPICGHMFTQKGNLLRHIKL,-0.0473
7,FQCPQCGAHFTQKGNLLRHIKL,-0.615
8,FGCNQCGHRFTQKGNLLRHIKL,0.951
9,FVCNQCGHDFTQKGNLLRHIKL,-1.62
10,FSCSVCGHNFTQKGNLLRHIKL,-1.31
11,FNCPQCGARFTQKGNLLRHIKL,-0.0533
12,FWCPICGRIFTQKGNLLRHIKL,1.06
13,FKCEICGHAFTQKGNLLRHIKL,-1.88
14,FICPICGHQFTQKGNLLRHIKL,-0.467
15,FKCEICGHWFTQKGNLLRHIKL,-0.294
16,FICPICGRHFTQKGNLLRHIKL,-0.148
